# The other results are listed elsewhere or left out.
# B1: PX9937B-bvu-524-33-524 (Bacteroides vulgatus) (protein)
# chain: GTAYWKNPDQFTAFNTGLHALLREKSYNFFLLGEPRADIYGDNPIGGEASQGMERLPFNTINKENVGISNYGDMYKIINQINQMIAKTTETTILTEATQNYYLGEAYGMRAYLYFHLLRSWGDVVLYLDYTEGQNLDLSNITKGVSPATEVMEQIKKDIQASENAFGSDYSFKLGRHFWSAAATQMLKGEAYLWSGRQMNGGNSDYTIAKNAFENVKKADVGLVTSSFKDIFSFENKKNKEMIFTIHNGKDEYEMWGGYYRMRLIPAQDKMVKIYCDENGNSFVGTPDAQLNGLTQLQVRREFYFKGFRNNDTRWTTSLKAVYKKDAQGVVSYFGPITYKFQGTMLEGGSTRSFLDDFPIYRYADCLLQLAMAKVLLGEDPTEEINAVRERAYGSKYFNEHKAEIAYPNDNDPEFYTDNKWMKPDNAGALEAILKERLREFMFEGKRWYDIRLLGWDYVHQYSSAEQSRLLWPIDAGTLTNNSALKQTPGYE
# Assays:
# Assay in all cases: glycan array binding signal (z-score within array); higher = stronger binding
# Settings in all cases: glycan notation: IUPAC condensed, linker removed
# [1] = molecular target: Neu5Ac(a2-3)Gal(b1-4)GlcNAc(b1-6)GalNAc
# Method in brief: (§1)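 Arrays were curated from the Consortium for Functional Glycomics database, 3228 in total, and kept only where the protein sequence was available. Binding is expressed as a within-array Z-score. This score was averaged across arrays of the same protein sequence at different concentrations or buffers and across linkers, and negative values can be read as non-binding.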
# [2] = molecular target: Neu5Ac(a2-3)Gal(b1-4)GlcNAc(b1-6)[Gal(b1-3)]GalNAc
# Method in brief: as §1
# [3] = molecular target: Neu5Ac(a2-3)Gal(b1-4)GlcNAc(b1-6)[Neu5Ac(a2-3)Gal(b1-3)]GalNAc
# Method in brief: as §1
# [4] = molecular target: Neu5Ac(a2-3)Gal(b1-4)GlcNAc6S
# Method in brief: as §1
# [5] = molecular target: Neu5Ac(a2-3)Gal(b1-4)[Fuc(a1-3)]GlcNAc
# Method in brief: as §1
# [6] = molecular target: Neu5Ac(a2-3)Gal(b1-4)[Fuc(a1-3)]GlcNAc(b1-2)Man
# Method in brief: as §1
# [7] = molecular target: Neu5Ac(a2-3)Gal(b1-4)[Fuc(a1-3)]GlcNAc(b1-3)Gal
# Method in brief: as §1
# [8] = molecular target: Neu5Ac(a2-3)Gal(b1-4)[Fuc(a1-3)]GlcNAc(b1-3)Gal(b1-4)GlcNAc
# Method in brief: as §1
# [9] = molecular target: Neu5Ac(a2-3)Gal(b1-4)[Fuc(a1-3)]GlcNAc(b1-3)Gal(b1-4)[Fuc(a1-3)]GlcNAc(b1-3)Gal(b1-4)[Fuc(a1-3)]GlcNAc
# Method in brief: as §1
# [10] = molecular target: Neu5Ac(a2-3)Gal(b1-4)[Fuc(a1-3)]GlcNAc(b1-3)GalNAc
# Method in brief: as §1
# [11] = molecular target: Neu5Ac(a2-3)Gal(b1-4)[Fuc(a1-3)]GlcNAc(b1-6)[Gal(b1-3)]GalNAc
# Method in brief: as §1
# [12] = molecular target: Neu5Ac(a2-3)Gal(b1-4)[Fuc(a1-3)]GlcNAc(b1-6)[Neu5Ac(a2-3)Gal(b1-3)]GalNAc
# Method in brief: as §1
# [13] = molecular target: Neu5Ac(a2-3)Gal(b1-4)[Fuc(a1-3)]GlcNAc6S
# Method in brief: as §1
# [14] = molecular target: Neu5Ac(a2-3)Gal6S(b1-4)GlcNAc
# Method in brief: as §1
# [15] = molecular target: Neu5Ac(a2-3)Gal6S(b1-4)[Fuc(a1-3)]GlcNAc
# Method in brief: as §1
# Neu5Ac(a2-3)GalNAc = molecular target: Neu5Ac(a2-3)GalNAc
# Method in brief: as §1
# [16] = molecular target: Neu5Ac(a2-3)GalNAc(b1-4)GlcNAc
# Method in brief: as §1
# [17] = molecular target: Neu5Ac(a2-3)[GalNAc(b1-4)]Gal(b1-4)Glc
# Method in brief: as §1
# [18] = molecular target: Neu5Ac(a2-3)[GalNAc(b1-4)]Gal(b1-4)GlcNAc
# Method in brief: as §1
# [19] = molecular target: Neu5Ac(a2-3)[GalNAc(b1-4)]Gal(b1-4)GlcNAc(b1-3)GalNAc
# Method in brief: as §1
# [20] = molecular target: Neu5Ac(a2-3)[Neu5Ac(a2-6)]GalNAc
# Method in brief: as §1
# Neu5Ac(a2-6)Gal = molecular target: Neu5Ac(a2-6)Gal
# Method in brief: as §1
# [21] = molecular target: Neu5Ac(a2-6)Gal(b1-3)GlcNAc(b1-3)[Gal(b1-4)GlcNAc(b1-6)]Gal(b1-4)Glc
# Method in brief: as §1
# Neu5Ac(a2-6)Gal(b1-4)Glc = molecular target: Neu5Ac(a2-6)Gal(b1-4)Glc
# Method in brief: as §1
# [22] = molecular target: Neu5Ac(a2-6)Gal(b1-4)GlcNAc
# Method in brief: as §1
# [23] = molecular target: Neu5Ac(a2-6)Gal(b1-4)GlcNAc(b1-2)Man
# Method in brief: as §1
# [24] = molecular target: Neu5Ac(a2-6)Gal(b1-4)GlcNAc(b1-2)Man(a1-3)Man(b1-4)GlcNAc(b1-4)GlcNAc
# Method in brief: as §1
# [25] = molecular target: Neu5Ac(a2-6)Gal(b1-4)GlcNAc(b1-2)Man(a1-3)[Gal(b1-4)GlcNAc(b1-2)Man(a1-6)]Man(b1-4)GlcNAc(b1-4)GlcNAc
# Method in brief: as §1
# [26] = molecular target: Neu5Ac(a2-6)Gal(b1-4)GlcNAc(b1-2)Man(a1-3)[GlcNAc(b1-2)Man(a1-6)]Man(b1-4)GlcNAc(b1-4)GlcNAc
# Method in brief: as §1
# [27] = molecular target: Neu5Ac(a2-6)Gal(b1-4)GlcNAc(b1-2)Man(a1-3)[GlcNAc(b1-4)][Neu5Ac(a2-6)Gal(b1-4)GlcNAc(b1-2)Man(a1-6)]Man(b1-4)GlcNAc(b1-4)GlcNAc
# Method in brief: as §1
# [28] = molecular target: Neu5Ac(a2-6)Gal(b1-4)GlcNAc(b1-2)Man(a1-3)[Man(a1-6)]Man(b1-4)GlcNAc(b1-4)GlcNAc
# Method in brief: as §1
# [29] = molecular target: Neu5Ac(a2-6)Gal(b1-4)GlcNAc(b1-2)Man(a1-3)[Neu5Ac(a2-3)Gal(b1-4)GlcNAc(b1-2)Man(a1-6)]Man(b1-4)GlcNAc(b1-4)GlcNAc
# Method in brief: as §1
# [30] = molecular target: Neu5Ac(a2-6)Gal(b1-4)GlcNAc(b1-2)Man(a1-3)[Neu5Ac(a2-6)Gal(b1-4)GlcNAc(b1-2)Man(a1-6)]Man(b1-4)GlcNAc(b1-4)GlcNAc
# Method in brief: as §1
# [31] = molecular target: Neu5Ac(a2-6)Gal(b1-4)GlcNAc(b1-2)Man(a1-3)[Neu5Ac(a2-6)Gal(b1-4)GlcNAc(b1-2)Man(a1-6)]Man(b1-4)GlcNAc(b1-4)[Fuc(a1-6)]GlcNAc
# Method in brief: as §1
# [32] = molecular target: Neu5Ac(a2-6)Gal(b1-4)GlcNAc(b1-2)Man(a1-6)Man(b1-4)GlcNAc(b1-4)GlcNAc
# Method in brief: as §1
# [33] = molecular target: Neu5Ac(a2-6)Gal(b1-4)GlcNAc(b1-2)Man(a1-6)[Gal(b1-4)GlcNAc(b1-2)Man(a1-3)]Man(b1-4)GlcNAc(b1-4)GlcNAc
# Method in brief: as §1
# [34] = molecular target: Neu5Ac(a2-6)Gal(b1-4)GlcNAc(b1-2)Man(a1-6)[GlcNAc(b1-2)Man(a1-3)]Man(b1-4)GlcNAc(b1-4)GlcNAc
# Method in brief: as §1
# [35] = molecular target: Neu5Ac(a2-6)Gal(b1-4)GlcNAc(b1-2)Man(a1-6)[Man(a1-3)]Man(b1-4)GlcNAc(b1-4)GlcNAc
# Method in brief: as §1
# [36] = molecular target: Neu5Ac(a2-6)Gal(b1-4)GlcNAc(b1-2)[Neu5Ac(a2-6)Gal(b1-4)GlcNAc(b1-4)]Man(a1-3)[GlcNAc(b1-4)][Neu5Ac(a2-6)Gal(b1-4)GlcNAc(b1-2)[Neu5Ac(a2-6)Gal(b1-4)GlcNAc(b1-6)]Man(a1-6)]Man(b1-4)GlcNAc(b1-4)GlcNAc
# Method in brief: as §1
# [37] = molecular target: Neu5Ac(a2-6)Gal(b1-4)GlcNAc(b1-2)[Neu5Ac(a2-6)Gal(b1-4)GlcNAc(b1-4)]Man(a1-3)[GlcNAc(b1-4)][Neu5Ac(a2-6)Gal(b1-4)GlcNAc(b1-4)Man(a1-6)]Man(b1-4)GlcNAc(b1-4)GlcNAc
# Method in brief: as §1
# [38] = molecular target: Neu5Ac(a2-6)Gal(b1-4)GlcNAc(b1-2)[Neu5Ac(a2-6)Gal(b1-4)GlcNAc(b1-6)]Man(a1-6)[Neu5Ac(a2-6)Gal(b1-4)GlcNAc(b1-2)Man(a1-3)][GlcNAc(b1-4)]Man(b1-4)GlcNAc(b1-4)GlcNAc
# Method in brief: as §1
# [39] = molecular target: Neu5Ac(a2-6)Gal(b1-4)GlcNAc(b1-3)Gal(b1-3)GlcNAc
# Method in brief: as §1
# [40] = molecular target: Neu5Ac(a2-6)Gal(b1-4)GlcNAc(b1-3)Gal(b1-4)GlcNAc
# Method in brief: as §1
# [41] = molecular target: Neu5Ac(a2-6)Gal(b1-4)GlcNAc(b1-3)Gal(b1-4)GlcNAc(b1-2)Man(a1-3)[Neu5Ac(a2-6)Gal(b1-4)GlcNAc(b1-3)Gal(b1-4)GlcNAc(b1-2)Man(a1-6)]GalNAc
# Method in brief: as §1
# [42] = molecular target: Neu5Ac(a2-6)Gal(b1-4)GlcNAc(b1-3)Gal(b1-4)GlcNAc(b1-3)Gal(b1-4)GlcNAc
# Method in brief: as §1
# [43] = molecular target: Neu5Ac(a2-6)Gal(b1-4)GlcNAc(b1-3)Gal(b1-4)GlcNAc(b1-3)Gal(b1-4)GlcNAc(b1-2)Man(a1-3)[Neu5Ac(a2-6)Gal(b1-4)GlcNAc(b1-3)Gal(b1-4)GlcNAc(b1-3)Gal(b1-4)GlcNAc(b1-2)Man(a1-6)]GalNAc
# Method in brief: as §1
binder,measurement,setting,value
B1,glycan array binding signal (z-score),[1],-0.41
same,glycan array binding signal (z-score),[2],-0.473
same,glycan array binding signal (z-score),[3],0.153
same,glycan array binding signal (z-score),[4],-0.119
same,glycan array binding signal (z-score),[5],-0.354
same,glycan array binding signal (z-score),[6],-0.222
same,glycan array binding signal (z-score),[7],-0.359
same,glycan array binding signal (z-score),[8],-0.165
same,glycan array binding signal (z-score),[9],-0.366
same,glycan array binding signal (z-score),[10],0.447
same,glycan array binding signal (z-score),[11],-0.094
same,glycan array binding signal (z-score),[12],0.874
same,glycan array binding signal (z-score),[13],0.116
same,glycan array binding signal (z-score),[14],-0.189
same,glycan array binding signal (z-score),[15],-0.366
same,glycan array binding signal (z-score),Neu5Ac(a2-3)GalNAc,-0.139
same,glycan array binding signal (z-score),[16],-0.221
same,glycan array binding signal (z-score),[17],-0.44
same,glycan array binding signal (z-score),[18],-0.08
same,glycan array binding signal (z-score),[19],1.38
same,glycan array binding signal (z-score),[20],-0.279
same,glycan array binding signal (z-score),Neu5Ac(a2-6)Gal,-0.383
same,glycan array binding signal (z-score),[21],-0.392
same,glycan array binding signal (z-score),Neu5Ac(a2-6)Gal(b1-4)Glc,-0.148
same,glycan array binding signal (z-score),[22],-0.274
same,glycan array binding signal (z-score),[23],-0.342
same,glycan array binding signal (z-score),[24],-0.068
same,glycan array binding signal (z-score),[25],0.451
same,glycan array binding signal (z-score),[26],-0.389
same,glycan array binding signal (z-score),[27],-0.093
same,glycan array binding signal (z-score),[28],-0.473
same,glycan array binding signal (z-score),[29],-0.399
same,glycan array binding signal (z-score),[30],-0.063
same,glycan array binding signal (z-score),[31],0.782
same,glycan array binding signal (z-score),[32],-0.238
same,glycan array binding signal (z-score),[33],-0.423
same,glycan array binding signal (z-score),[34],0.042
same,glycan array binding signal (z-score),[35],-0.299
same,glycan array binding signal (z-score),[36],-0.111
same,glycan array binding signal (z-score),[37],0.017
same,glycan array binding signal (z-score),[38],-0.321
same,glycan array binding signal (z-score),[39],-0.292
same,glycan array binding signal (z-score),[40],-0.184
same,glycan array binding signal (z-score),[41],-0.236
same,glycan array binding signal (z-score),[42],-0.4
same,glycan array binding signal (z-score),[43],1.34

# Source: the supplement of paper PMC8728848
